Results as given in paper PMC10302205, “Saccharomyces cerevisiae Δ9-desaturase Ole1 forms a supercomplex with Slc1 and Dga1” (The Journal of Biological Chemistry, 2023).
Results are given in words; binding and its absence hold for the method and conditions named. Some binding calls cover weakened binding; strength is not graded here. For some of these results: Where a sequence is shown, tags or fusion partners need not be part of it.

target: T1, Ole1-Myc-Cub-LexA-VP16 (S. cerevisiae, UniProt P21147 1-510); assay: two-hybrid; integrated membrane yeast two-hybrid (split ubiquitin): Ole1-Myc-Cub-LexA-VP16 from the endogenous locus of strain YBG1 as bait, NubG fusions from plasmids as prey; growth on SD-W-H-A with 6 mM 3-aminotriazole and β-galactosidase activity of cell extracts
T1 construct: Ole1, Δ9 acyl-CoA (stearoyl-CoA) desaturase of S. cerevisiae; the endogenous chromosomal OLE1 gene, with the tag at its carboxyl end; The tag was put behind the chromosomal gene, so the whole protein is likely; also called Δ9 acyl-CoA desaturase Ole1; Ole1-Cub-LexA-VP16; not shown: Myc, C-terminal, kept; Cub-LexA-VP16, C-terminal, kept
T1 sequence (looked up): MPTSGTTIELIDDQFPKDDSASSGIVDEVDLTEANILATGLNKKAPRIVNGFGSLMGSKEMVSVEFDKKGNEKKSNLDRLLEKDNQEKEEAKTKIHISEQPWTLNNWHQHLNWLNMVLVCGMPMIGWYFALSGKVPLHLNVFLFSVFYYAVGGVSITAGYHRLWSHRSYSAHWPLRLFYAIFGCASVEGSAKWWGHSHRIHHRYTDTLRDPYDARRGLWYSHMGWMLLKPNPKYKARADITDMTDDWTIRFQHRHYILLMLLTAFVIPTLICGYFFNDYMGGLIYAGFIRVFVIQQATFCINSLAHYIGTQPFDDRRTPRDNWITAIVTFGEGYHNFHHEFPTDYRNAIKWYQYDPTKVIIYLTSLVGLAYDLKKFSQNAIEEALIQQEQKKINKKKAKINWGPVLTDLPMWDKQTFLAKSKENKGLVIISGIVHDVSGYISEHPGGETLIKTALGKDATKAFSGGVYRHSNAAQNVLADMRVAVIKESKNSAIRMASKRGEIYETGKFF

Row | Binder | binding
1 | NubG-Dga1REK (Dga1 R404A, E405A, K406A) (enzyme, UniProt Q08650 1-418) MSGTFNDIRRRKKEEGSPTAGITERHENKSLSSIDKREQTLKPQLESCCPLATPFERRLQTLAVAWHTSSFVLFSIFTLFAISTPALWVLAIPYMIYFFFDRSPATGEVVNRYSLRFRSLPIWKWYCDYFPISLIKTVNLKPTFTLSKNKRVNEKNYKIRLWPTKYSINLKSNSTIDYRNQECTGPTYLFGYHPHGIGALGAFGAFATEGCNYSKIFPGIPISLMTLVTQFHIPLYRDYLLALGISSVSRKNALRTLSKNQSICIVVGGARESLLSSTNGTQLILNKRKGFIKLAIQTGNINLVPVFAFGEVDCYNVLSTKKDSVLGKMQLWFKENFGFTIPIFYARGLFNYDFGLLPFRAPINVVVGRPIYVEKKITNPPDDVVNHFHDLYIAELKRLYYENAAAYGVPDAELKIVG | binds
2 | NubG-Gpt2 (enzyme, S. cerevisiae, UniProt P36148 1-743, looked up, Gpt2, glycerophosphate acyltransferase of S. cerevisiae; also called pNubG-GPT2; pADSL-NubG-GPT2; source: yeast two-hybrid fusion (split ubiquitin prey), from plasmid pADSL-NubG-GPT2 in S. cerevisiae; not shown: NubG, N-terminal, kept) MSAPAADHNAAKPIPHVPQASRRYKNSYNGFVYNIHTWLYDVSVFLFNILFTIFFREIKVRGAYNVPEVGVPTILVCAPHANQFIDPALVMSQTRLLKTSAGKSRSRMPCFVTAESSFKKRFISFFGHAMGGIPVPRIQDNLKPVDENLEIYAPDLKNHPEIIKGRSKNPQTTPVNFTKRFSAKSLLGLPDYLSNAQIKEIPDDETIILSSPFRTSKSKVVELLTNGTNFKYAEKIDNTETFQSVFDHLHTKGCVGIFPEGGSHDRPSLLPIKAGVAIMALGAVAADPTMKVAVVPCGLHYFHRNKFRSRAVLEYGEPIVVDGKYGEMYKDSPRETVSKLLKKITNSLFSVTENAPDYDTLMVIQAARRLYQPVKVRLPLPAIVEINRRLLFGYSKFKDDPRIIHLKKLVYDYNRKLDSVGLKDHQVMQLKTTKLEALRCFVTLIVRLIKFSVFAILSLPGSILFTPIFIICRVYSEKKAKEGLKKSLVKIKGTDLLATWKLIVALILAPILYVTYSILLIILARKQHYCRIWVPSNNAFIQFVYFYALLVFTTYSSLKTGEIGVDLFKSLRPLFVSIVYPGKKIEEIQTTRKNLSLELTAVCNDLGPLVFPDYDKLATEIFSKRDGYDVSSDAESSISRMSVQSRSRSSSIHSIGSLASNALSRVNSRGSLTDIPIFSDAKQGQWKSEGETSEDEDEFDEKNPAIVQTARSSDLNKENSRNTNISSKIASLVRQKREHEKKE | binds
3 | NubG-Dga1 S17A (enzyme, UniProt Q08650 1-418) MSGTFNDIRRRKKEEGAPTAGITERHENKSLSSIDKREQTLKPQLESCCPLATPFERRLQTLAVAWHTSSFVLFSIFTLFAISTPALWVLAIPYMIYFFFDRSPATGEVVNRYSLRFRSLPIWKWYCDYFPISLIKTVNLKPTFTLSKNKRVNEKNYKIRLWPTKYSINLKSNSTIDYRNQECTGPTYLFGYHPHGIGALGAFGAFATEGCNYSKIFPGIPISLMTLVTQFHIPLYRDYLLALGISSVSRKNALRTLSKNQSICIVVGGARESLLSSTNGTQLILNKRKGFIKLAIQTGNINLVPVFAFGEVDCYNVLSTKKDSVLGKMQLWFKENFGFTIPIFYARGLFNYDFGLLPFRAPINVVVGRPIYVEKKITNPPDDVVNHFHDLYIAELKRLYYENREKYGVPDAELKIVG | binds
4 | NubG-Dga1 S17D (enzyme, UniProt Q08650 1-418) MSGTFNDIRRRKKEEGDPTAGITERHENKSLSSIDKREQTLKPQLESCCPLATPFERRLQTLAVAWHTSSFVLFSIFTLFAISTPALWVLAIPYMIYFFFDRSPATGEVVNRYSLRFRSLPIWKWYCDYFPISLIKTVNLKPTFTLSKNKRVNEKNYKIRLWPTKYSINLKSNSTIDYRNQECTGPTYLFGYHPHGIGALGAFGAFATEGCNYSKIFPGIPISLMTLVTQFHIPLYRDYLLALGISSVSRKNALRTLSKNQSICIVVGGARESLLSSTNGTQLILNKRKGFIKLAIQTGNINLVPVFAFGEVDCYNVLSTKKDSVLGKMQLWFKENFGFTIPIFYARGLFNYDFGLLPFRAPINVVVGRPIYVEKKITNPPDDVVNHFHDLYIAELKRLYYENREKYGVPDAELKIVG | binds
5 | NubG-Dga1_(30–418) (domain or fragment, UniProt Q08650 30-418) SLSSIDKREQTLKPQLESCCPLATPFERRLQTLAVAWHTSSFVLFSIFTLFAISTPALWVLAIPYMIYFFFDRSPATGEVVNRYSLRFRSLPIWKWYCDYFPISLIKTVNLKPTFTLSKNKRVNEKNYKIRLWPTKYSINLKSNSTIDYRNQECTGPTYLFGYHPHGIGALGAFGAFATEGCNYSKIFPGIPISLMTLVTQFHIPLYRDYLLALGISSVSRKNALRTLSKNQSICIVVGGARESLLSSTNGTQLILNKRKGFIKLAIQTGNINLVPVFAFGEVDCYNVLSTKKDSVLGKMQLWFKENFGFTIPIFYARGLFNYDFGLLPFRAPINVVVGRPIYVEKKITNPPDDVVNHFHDLYIAELKRLYYENREKYGVPDAELKIVG | binds
6 | NubG-Dga1_(1–318) (domain or fragment, UniProt Q08650 1-318) MSGTFNDIRRRKKEEGSPTAGITERHENKSLSSIDKREQTLKPQLESCCPLATPFERRLQTLAVAWHTSSFVLFSIFTLFAISTPALWVLAIPYMIYFFFDRSPATGEVVNRYSLRFRSLPIWKWYCDYFPISLIKTVNLKPTFTLSKNKRVNEKNYKIRLWPTKYSINLKSNSTIDYRNQECTGPTYLFGYHPHGIGALGAFGAFATEGCNYSKIFPGIPISLMTLVTQFHIPLYRDYLLALGISSVSRKNALRTLSKNQSICIVVGGARESLLSSTNGTQLILNKRKGFIKLAIQTGNINLVPVFAFGEVDCYNVL | no binding
7 | NubG-Dga1_(1–240) (domain or fragment, UniProt Q08650 1-240) MSGTFNDIRRRKKEEGSPTAGITERHENKSLSSIDKREQTLKPQLESCCPLATPFERRLQTLAVAWHTSSFVLFSIFTLFAISTPALWVLAIPYMIYFFFDRSPATGEVVNRYSLRFRSLPIWKWYCDYFPISLIKTVNLKPTFTLSKNKRVNEKNYKIRLWPTKYSINLKSNSTIDYRNQECTGPTYLFGYHPHGIGALGAFGAFATEGCNYSKIFPGIPISLMTLVTQFHIPLYRDYL | no binding
8 | NubG-Dga1_(1–288) (domain or fragment, UniProt Q08650 1-288) MSGTFNDIRRRKKEEGSPTAGITERHENKSLSSIDKREQTLKPQLESCCPLATPFERRLQTLAVAWHTSSFVLFSIFTLFAISTPALWVLAIPYMIYFFFDRSPATGEVVNRYSLRFRSLPIWKWYCDYFPISLIKTVNLKPTFTLSKNKRVNEKNYKIRLWPTKYSINLKSNSTIDYRNQECTGPTYLFGYHPHGIGALGAFGAFATEGCNYSKIFPGIPISLMTLVTQFHIPLYRDYLLALGISSVSRKNALRTLSKNQSICIVVGGARESLLSSTNGTQLILNKR | no binding
9 | NubG-Dga1_(1–398) (domain or fragment, UniProt Q08650 1-398) MSGTFNDIRRRKKEEGSPTAGITERHENKSLSSIDKREQTLKPQLESCCPLATPFERRLQTLAVAWHTSSFVLFSIFTLFAISTPALWVLAIPYMIYFFFDRSPATGEVVNRYSLRFRSLPIWKWYCDYFPISLIKTVNLKPTFTLSKNKRVNEKNYKIRLWPTKYSINLKSNSTIDYRNQECTGPTYLFGYHPHGIGALGAFGAFATEGCNYSKIFPGIPISLMTLVTQFHIPLYRDYLLALGISSVSRKNALRTLSKNQSICIVVGGARESLLSSTNGTQLILNKRKGFIKLAIQTGNINLVPVFAFGEVDCYNVLSTKKDSVLGKMQLWFKENFGFTIPIFYARGLFNYDFGLLPFRAPINVVVGRPIYVEKKITNPPDDVVNHFHDLYIAELKR | no binding

target: T2, Slc1-Cub-LexA-VP16 (S. cerevisiae, UniProt P33333 1-303); assay: two-hybrid; membrane yeast two-hybrid (split ubiquitin): plasmid-borne Slc1-Cub-LexA-VP16 as bait and NubG fusions as prey in NMY51; growth on SD-W-L-H-A with 6 mM 3-aminotriazole and β-galactosidase activity of cell extracts
T2 construct: Slc1, lysophosphatidic acid acyltransferase of S. cerevisiae; The end of the tag is read from the order of the printed label; also called Slc1 bait (strain YBG2); pTMBV4-SLC1; not shown: Cub-LexA-VP16, C-terminal, kept
T2 sequence (looked up): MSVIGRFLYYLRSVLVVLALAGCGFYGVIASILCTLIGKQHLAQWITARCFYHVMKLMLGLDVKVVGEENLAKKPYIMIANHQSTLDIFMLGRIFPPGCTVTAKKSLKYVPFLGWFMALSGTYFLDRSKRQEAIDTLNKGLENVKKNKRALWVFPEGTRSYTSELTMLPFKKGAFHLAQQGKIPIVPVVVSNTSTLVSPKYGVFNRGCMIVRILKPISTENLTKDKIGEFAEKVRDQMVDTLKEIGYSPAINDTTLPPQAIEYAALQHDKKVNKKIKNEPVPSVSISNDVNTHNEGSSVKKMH

Row | Binder | binding
10 | NubG-Dga1_(38–418) (domain or fragment, UniProt Q08650 38-418) EQTLKPQLESCCPLATPFERRLQTLAVAWHTSSFVLFSIFTLFAISTPALWVLAIPYMIYFFFDRSPATGEVVNRYSLRFRSLPIWKWYCDYFPISLIKTVNLKPTFTLSKNKRVNEKNYKIRLWPTKYSINLKSNSTIDYRNQECTGPTYLFGYHPHGIGALGAFGAFATEGCNYSKIFPGIPISLMTLVTQFHIPLYRDYLLALGISSVSRKNALRTLSKNQSICIVVGGARESLLSSTNGTQLILNKRKGFIKLAIQTGNINLVPVFAFGEVDCYNVLSTKKDSVLGKMQLWFKENFGFTIPIFYARGLFNYDFGLLPFRAPINVVVGRPIYVEKKITNPPDDVVNHFHDLYIAELKRLYYENREKYGVPDAELKIVG | binds
